Laboratory results published in PubChem BioAssay AID1460 (National Center for Advancing Translational Sciences (NCATS), 2008).
In all, about 270,000 compounds went through this assay and about 5,800 (2.1%) were called active. The shares of active, inactive and inconclusive entries below differ from those in the screen. The call rests on the fitted dose curve; in most records, active means well fitted inhibition curve with a large enough effect; inconclusive means small, poorly fitted or top-dose-only effect; inactive means flat fitted curve, though single readings scatter. Where the call is inconclusive, the potency comes from a doubtful curve fit.

The molecules below were run against Microtubule-associated protein tau (Homo sapiens) (UniProt P10636) (assay: qHTS for Inhibitors of Tau Fibril Formation, Thioflavin T Binding). Details: recombinant tau K18 P301L, heparin-induced fibrillization, ThT fluorescence; series mostly up to 57.4 µM.
Summary of the method: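 Using a mix of unlabeled (15 uM) and Alexa 594-labeled (0.24 uM) tau K18 P301L, heparin-triggered fibrillization over 6 hr at 37 C was scored by ThT fluorescence.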
Further: nearly all actives have a fitted effect of over 55% in size.
Potency means the concentration at half of the fitted maximal effect; tags describe the fitted curve by direction and shape.

Chain of UniProt P10636 (P10636 whole entry, looked up): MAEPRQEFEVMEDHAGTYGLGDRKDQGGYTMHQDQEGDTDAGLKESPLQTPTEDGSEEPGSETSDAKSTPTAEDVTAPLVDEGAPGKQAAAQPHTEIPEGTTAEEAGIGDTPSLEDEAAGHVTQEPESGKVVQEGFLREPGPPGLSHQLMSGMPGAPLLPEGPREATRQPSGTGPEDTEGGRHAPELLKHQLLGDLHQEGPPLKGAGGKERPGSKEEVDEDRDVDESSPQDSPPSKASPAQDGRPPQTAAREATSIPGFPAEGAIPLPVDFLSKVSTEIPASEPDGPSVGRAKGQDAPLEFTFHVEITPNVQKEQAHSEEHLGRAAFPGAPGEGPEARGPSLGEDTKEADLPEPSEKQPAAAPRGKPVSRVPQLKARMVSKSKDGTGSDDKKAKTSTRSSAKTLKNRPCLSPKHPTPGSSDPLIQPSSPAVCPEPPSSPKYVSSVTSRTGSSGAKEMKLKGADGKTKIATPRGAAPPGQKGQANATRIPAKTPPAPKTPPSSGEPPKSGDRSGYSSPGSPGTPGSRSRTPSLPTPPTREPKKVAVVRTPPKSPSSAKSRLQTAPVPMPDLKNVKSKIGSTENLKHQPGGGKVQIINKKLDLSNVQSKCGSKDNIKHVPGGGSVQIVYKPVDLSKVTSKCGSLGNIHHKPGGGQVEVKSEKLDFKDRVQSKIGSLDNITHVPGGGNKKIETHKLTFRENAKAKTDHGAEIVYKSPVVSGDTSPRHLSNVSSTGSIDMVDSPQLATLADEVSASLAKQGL

Structure (SMILES) | Potency
Cc1ccccc1OCCN1CCC(Cc2ccccc2)CC1 | inactive
COc1cc(C=O)c(Br)cc1OCC(=O)NCCc1ccccc1 | inconclusive: 8.91 µM [activator, single point]
O=C(Nc1nccs1)C(F)(F)C(F)(F)C(F)(F)C(=O)Nc1nccs1 | inconclusive: 14.1 µM [inhibitor, partial curve]
CCN(CC)c1ccc(/C=N/NC(=O)c2ccc(Br)o2)cc1 | active: 3.16 µM
Cc1ccc(-c2nc(C)c(CCNC(=O)C(=O)Nc3ccc4c(c3)OCO4)s2)cc1 | inconclusive: 0.891 µM [inhibitor, full curve]
CCc1nnc(N/N=C/c2ccc(N3CCC(C)CC3)c([N+](=O)[O-])c2)n1N | active: 12.6 µM
O=C(CCN1C(=O)/C(=C/c2ccccc2)SC1=S)NNC(=O)c1ccncc1 | inactive
COc1ccc(N=Nc2cc(C)c(O)c(CN3CCCCC3)c2)cc1 | inconclusive: 7.94 µM [inhibitor, partial curve]
COc1ccc(N2C(=O)/C(=C\c3ccco3)N=C2SCC(=O)N(C(C)C)C(C)C)cc1Cl | inconclusive: 31.6 µM [inhibitor, single point]
CCc1ccc(NC(=O)c2cc3c([nH]c2=O)CC(C)(C)CC3=O)cc1 | inactive
COC(=O)/C=c1\sc2ncnn2c1=O | active: 15.8 µM
C=CCOC(=O)N[C@@H](CC(C)C)/C(C(=O)OC)=C(\C)NCc1ccccc1 | inactive
C[C@@H](C(=O)NCc1ccc(S(C)(=O)=O)cc1)[C@H]1C[C@]1(C)[C@H](NC(=O)OCc1ccccc1)c1ccccc1 | inconclusive: 35.5 µM [inhibitor, single point]
Cc1cccn2c(=O)c(/C=C(\C#N)S(=O)(=O)c3ccc(Cl)cc3)c(N3CCC(C(N)=O)CC3)nc12 | inconclusive: 35.5 µM [inhibitor, single point]
O=C1c2ccccc2-c2n[nH]c(=O)c3ccc(N4CCCCC4)c1c23 | active: 14.1 µM
CCCNC(=S)NC1CCCC1 | inactive
C=CCSC1=N/C(=C\c2ccc3c(c2)OCO3)C(=O)S1 | inconclusive: 14.1 µM [inhibitor, partial curve, poor fit]
COc1ccc(Nc2cc(C)c3cc(NC(=O)c4cc(OC)cc(OC)c4)ccc3n2)cc1 | active: 11.2 µM
CCN1C(=O)/C(=c2\s/c(=C3\Sc4ccccc4N3C)c(=O)n2C)N(C)C1=S | inconclusive: 11.2 µM [inhibitor, partial curve, poor fit]
Cc1cnc(NC(=O)c2sc3ccccc3c2Cl)s1 | inconclusive: 7.94 µM [inhibitor, full curve, poor fit]
CC(C)(C)NC(=S)NCc1ccncc1 | inactive
Clc1ccccc1CSc1ncn(-c2ccccc2)n1 | inactive
CCOC(=O)C1=NN(C(=O)Cc2ccccc2)C(O)(c2ccc(Cl)cc2)C1 (centres undefined) | inactive
Cc1cc(C)c(NC(=O)CCC(=O)N2Cc3ccccc3Oc3ncccc32)c(C)c1 | inactive
c1ccc(N(c2ccccc2)c2nc(N3CCCC3)nc(-n3ccnc3)n2)cc1 | inconclusive: 15.8 µM [inhibitor, partial curve]

Structure (SMILES) | Potency
COc1ccc(S(=O)(=O)NCc2ccc3c(c2)cc(C)n3C)cc1 | inactive
CCNC(=S)N/N=C1\CCCCc2ccccc21 | inactive
CC(C)(C)C(=O)NC(=S)NCc1ccccc1 | inactive
COc1ccc(C(=O)NC(=S)Nc2ccc3c(c2)Cc2ccccc2-3)cc1 | inconclusive: 2.24 µM [inhibitor, full curve]
CCn1c(/C=C/c2ccccc2)nc2ccccc21 | inconclusive: 31.6 µM [inhibitor, partial curve]
NC(=O)CSc1nnc(-c2ccccn2)n1Cc1ccco1 | inactive
C#CCOC(=O)NC(/C=C/CCCC)c1ccccc1 (centres undefined) | inactive
CCOC(=O)c1c(-c2ccccc2Cl)cn2ccccc12 | inconclusive: 35.5 µM [inhibitor, partial curve]
O=C1c2ccccc2C(O)(Cc2ccccc2)N1c1ccc2c(c1)OCO2 (centres undefined) | inconclusive: 20 µM [inhibitor, single point]
CCC(CC)COC(=O)C(C#N)c1nc2ccccc2nc1N1CCOCC1 (centres undefined) | inconclusive: 15.8 µM [inhibitor, partial curve]
CS(=O)(=O)N1CCN(c2ccc([N+](=O)[O-])c(SCc3ccco3)c2)CC1 | inconclusive: 10 µM [inhibitor, partial curve, poor fit]
CCOC(=O)C1CCN(C(=O)c2oc3ccc(S(=O)(=O)N4CC(C)CC(C)C4)cc3c2C)CC1 (centres undefined) | inconclusive: 28.2 µM [inhibitor, single point]
CCn1c(/C=C/N(C)c2ccccc2)[n+](CC)c2ccc(Cl)cc21 | inactive
N/C(=N\OC(=O)CCC1CCCC1)c1ccc([N+](=O)[O-])cc1 | inconclusive: 39.8 µM [inhibitor, single point]
Cc1cc(C)cc(NC(=O)CSc2oc(-c3cccs3)nc2S(=O)(=O)c2ccc(Br)cc2)c1 | inactive
Cc1nc2ccccc2c(=O)n1NCc1cc(Br)cs1 | inactive
CCn1cc(CN2CCc3c([nH]c4ccccc34)C2c2ccc(F)c(OC)c2)c(C)n1 (centres undefined) | inconclusive: 35.5 µM [inhibitor, single point]
CC(=O)CCc1oc2c([N+](=O)[O-])cccc2c1-c1ccc(C)o1 | inconclusive: 14.1 µM [inhibitor, partial curve]
OCCN1CCN(C(=S)c2ccc(Br)cc2)CC1 | inactive
CCOc1ccc(N(CC)C(=O)c2cc3c(s2)-c2ccc(Cl)cc2SC3)cc1 | inactive
Cc1ccc(CN2CCN(Cc3ccccc3-c3ccco3)CC2CCO)o1 (centres undefined) | inconclusive: 39.8 µM [inhibitor, single point]
Cc1ccc(C(=O)NCCSc2c[nH]c3ccccc23)cc1C | inconclusive: 28.2 µM [inhibitor, partial curve]
Cc1ccn2c(Nc3ccc4c(c3)OCO4)c(-c3ccc(C)o3)nc2c1 | inconclusive: 12.6 µM [inhibitor, partial curve]
Cc1cccc(NC(=O)c2ccc(F)c(S(=O)(=O)NCc3ccc4c(c3)OCO4)c2)c1 | inactive
Cc1ccc(-c2cc(C(=O)O)c3cc(Br)ccc3n2)o1 | active: 20 µM

Structure (SMILES) | Potency
CCOC(=O)c1ccc(NC(=O)C2CCN(S(=O)(=O)Cc3ccccc3)CC2)cc1 | inconclusive: 39.8 µM [inhibitor, single point]
CCOc1ccc(NC(=O)c2sc3nc4n(c(=O)c3c2C)CCCC4)cc1 | inactive
N#CC1=C(S)N(c2ccccc2)C(c2ccc(-c3cc(Cl)ccc3Cl)o2)NC1=O (centres undefined) | inconclusive: 25.1 µM [inhibitor, single point]
CC1(C)CC(=O)C2=C(C1)NC1=C(C(=O)c3ccccc31)C2c1cccnc1 (centres undefined) | inconclusive: 25.1 µM [inhibitor, partial curve]
N#CCc1nc(-c2cc3ccccc3oc2=O)cs1 | inconclusive: 22.4 µM [inhibitor, single point]
COc1cccc(CNCCc2c[nH]c3ccccc23)c1OCc1ccccc1F | inconclusive: 44.7 µM [inhibitor, partial curve]
CCOc1ccc(NC(c2ccc(Cl)cc2)c2nnc(-c3cccc(F)c3)o2)cc1 (centres undefined) | inconclusive: 17.8 µM [inhibitor, partial curve, poor fit]
Cc1ccc(CN(C(=O)COc2cccc(Cl)c2)c2ccccn2)o1 | inactive
COc1ccc(C(=O)c2cc([N+](=O)[O-])ccc2N2CCCC2)cc1 | inconclusive: 39.8 µM [inhibitor, single point]
Cc1ccc(CNS(=O)(=O)c2ccc3c(c2)OCCO3)cc1 | inactive
COc1ccc(OC)c(/C=N/NC(=O)c2cc[n+](CC(=O)c3ccccc3)cc2)c1 | active: 11.2 µM
COc1cc(C(c2c(C)[nH][nH]c2=O)c2c(C)[nH][nH]c2=O)ccc1OS(=O)(=O)c1ccccc1 | inconclusive: 20 µM [inhibitor, partial curve]
CCCN(CCC)C(=O)Cn1c(=O)n(-c2ccc(CC)cc2)c(=O)c2c3c(sc21)CCC3 | inactive
CC1(C)SC(=S)N(/N=C/c2ccc(O)cc2)C1N(O)C(=O)Nc1ccc([N+](=O)[O-])cc1 (centres undefined) | inconclusive: 20 µM [inhibitor, partial curve]
Cc1ccc(C(CC(=O)N2CCOCC2)c2ccco2)cc1 (centres undefined) | inactive
CCCOC(=O)c1ccc(NC(=O)CSC2=Nc3ccccc3C3CC=NN23)cc1 (centres undefined) | inconclusive: 11.2 µM [inhibitor, partial curve]
O=c1ccn(CCc2c[nH]c3ccccc23)c2c1CCCC2 | inactive
C/C(=C\c1ccccc1)CN1CCN(c2ccccc2)CC1 | inactive
COC(=O)[C@@]1(Cc2ccc(OC)cc2)[C@H]2c3cc(C(=O)N(C)C)n(Cc4ccc(C(F)(F)F)nc4)c3C[C@H]2CN1C(=O)c1ccccc1 | inconclusive: 28.2 µM [inhibitor, single point]
COc1ccc(C(=O)Nc2cc(-c3nc4ncccc4o3)ccc2C)cc1Br | inactive
CC1CCCCN1C(=O)Cn1cc(/C=C2/C(=O)Nc3ccccc32)c2ccccc21 (centres undefined) | active: 10 µM
Cc1ccc(OCC(=O)Nc2nnc(SCc3cc(=O)n4cc(C)ccc4n3)s2)cc1 | inactive
CCN(CC)c1ccc2cc(-c3nnc(-c4ccccc4)o3)c(=O)oc2c1 | inconclusive: 0.562 µM [activator, full curve]
CCn1cc(/C=N/N=C2\CCC3C4CCc5cc(O)ccc5C4CC[C@]23C)c(C)n1 (some centres undefined) | inconclusive: 8.91 µM [inhibitor, partial curve]
